# Out of some 310,000 compounds screened, about 14,000 (4.5%) showed an effect of 50% or more. The effect is printed as a negative number. The list shows a part of the results.
# Target: human ether-à-go-go-related gene (hERG) potassium channel (human, UniProt Q12809)
# Assay: primary screen, population patch clamp on CHO cells stably expressing hERG
# 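Also: peak tail current of the secondary pulse compared with the same well before compound.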
# Sequence of human ether-à-go-go-related gene (hERG) potassium channel (Q12809 whole entry, looked up): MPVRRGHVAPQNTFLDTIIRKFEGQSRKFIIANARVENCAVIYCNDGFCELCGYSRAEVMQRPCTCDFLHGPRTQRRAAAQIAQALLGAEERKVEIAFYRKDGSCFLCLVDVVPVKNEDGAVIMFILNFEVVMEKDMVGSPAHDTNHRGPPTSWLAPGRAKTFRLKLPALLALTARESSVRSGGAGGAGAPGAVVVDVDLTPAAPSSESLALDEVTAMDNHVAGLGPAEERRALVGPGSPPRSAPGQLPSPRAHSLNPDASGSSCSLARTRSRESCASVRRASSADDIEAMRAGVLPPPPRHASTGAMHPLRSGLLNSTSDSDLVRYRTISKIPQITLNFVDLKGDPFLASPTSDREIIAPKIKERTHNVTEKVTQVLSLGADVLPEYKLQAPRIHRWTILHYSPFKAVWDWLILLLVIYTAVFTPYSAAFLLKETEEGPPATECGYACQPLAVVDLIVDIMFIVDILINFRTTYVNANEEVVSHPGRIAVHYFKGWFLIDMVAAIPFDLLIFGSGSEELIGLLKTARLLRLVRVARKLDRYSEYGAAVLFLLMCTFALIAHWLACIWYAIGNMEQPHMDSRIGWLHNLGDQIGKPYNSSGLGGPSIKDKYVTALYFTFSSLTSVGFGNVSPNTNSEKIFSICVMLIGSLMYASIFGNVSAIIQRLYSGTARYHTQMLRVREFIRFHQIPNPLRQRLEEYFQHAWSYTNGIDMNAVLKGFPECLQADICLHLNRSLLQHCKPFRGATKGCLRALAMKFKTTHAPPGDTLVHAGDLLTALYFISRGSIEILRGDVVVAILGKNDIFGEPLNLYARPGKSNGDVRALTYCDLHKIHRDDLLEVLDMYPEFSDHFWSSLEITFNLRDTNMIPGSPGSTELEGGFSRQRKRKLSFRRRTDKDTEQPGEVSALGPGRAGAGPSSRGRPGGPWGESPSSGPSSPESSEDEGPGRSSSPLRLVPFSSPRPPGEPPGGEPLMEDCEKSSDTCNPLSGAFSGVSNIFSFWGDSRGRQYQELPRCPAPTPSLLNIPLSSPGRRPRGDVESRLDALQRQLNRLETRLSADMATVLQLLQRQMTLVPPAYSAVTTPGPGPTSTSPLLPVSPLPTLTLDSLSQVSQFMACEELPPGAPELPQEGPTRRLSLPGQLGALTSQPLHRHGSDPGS
row,Structure (SMILES),"hERG current change (%, negative = inhibition) at 10uM [%]"
1,CCOC(=O)c1sc(NC(=O)C2=COCCO2)c(C#N)c1C,3.71
2,CCOC(=O)C1=C(COC(=O)CCNS(=O)(=O)c2ccc(C)c(C)c2)NC(=O)NC1C (stereo not shown),-16.1
3,O=C(NCCCNC(=O)c1cc(Cl)ccc1Cl)c1cnccn1,8.25
4,O=C(COC(=O)C1(c2ccccc2F)CCCC1)NCc1ccc2c(c1)OCO2,-6.33
5,O=C(Cc1ccc(Br)cc1)OCC(=O)N1CCc2ccccc2C1,5.68
6,CCCS(=O)(=O)N1CCN(c2ccccc2F)CC1,10.3
7,Cc1cc(C=O)c(C)n1C1CCCCC1,-4.74
8,COc1cc2c(cc1OC)CC(C(=O)NCc1ccccc1)NC2 (stereo not shown),7.81
9,Cc1cc(C)cc(C(=O)NCC(=O)NCCc2c[nH]c3ccccc23)c1,25.1
10,COc1cc(S(=O)(=O)Nc2ncn[nH]2)ccc1Cl,18.3
11,Cc1ccc(C(C(=O)NCc2ccco2)N(C(=O)CNC(=O)c2cccs2)c2ccc(C)cc2)cc1 (stereo not shown),27.3
12,O=C(Cn1c(S(=O)(=O)Cc2ccccc2)nc2ccccc21)N1CCCCC1,-6.34
13,Cc1ccc(S(=O)(=O)NC(=O)c2cccc(C)c2)cc1,-1.32
14,CCOc1c(C)cnc2c1c(=O)n(Cc1ccccc1Cl)c(=O)n2C,9.79
15,COc1cc(OC)c(OC)cc1/C=C1/C(=O)N=C(N)N1C,-16.1
16,Cc1cccc(N2C(=O)/C(=C\c3ccc(OC(F)F)cc3)c3ccccc3C2=O)c1,5.85
17,CCN(C(=O)CN1C(=O)NC(CCSC)C1=O)C1CCS(=O)(=O)C1 (stereo not shown),-48.1
18,COC(=O)c1ccc2c(=O)n(Cc3ccc(C(=O)NCCCN4CCC(C)CC4)cc3)c(=S)[nH]c2c1,7.54
19,Cc1ccccc1CNC(=O)c1cc(COc2ccc(F)cc2F)on1,44.5
20,Cc1ccc(NC(=O)CSc2nncn2-c2ccccn2)cc1Cl,5.29
21,Cc1cc(S(=O)(=O)N2CC(=O)N(CCc3ccccc3)C(=O)C2)ccc1F,17.3
22,Cc1cccc(N2C(=O)C(Cl)=C(Nc3c(C)n(C)n(-c4ccccc4)c3=O)C2=O)c1C,15.4

row,Structure (SMILES),"hERG current change (%, negative = inhibition) at 10uM [%]"
1,COc1ccc(-c2oc3ccccc3c2C(=O)OCc2ccccc2)cc1,15.1
2,Cc1c(S(=O)(=O)Nc2cccc(Cl)c2)c(=O)n(C)c(=O)n1C,5.03
3,CC(C)(C)C(=O)OC/C(N)=N/OC(=O)c1ccccc1,-3.07
4,CN(C(=O)COC(=O)c1ccc([N+](=O)[O-])cc1Cl)C1CCCCC1,-29.1
5,CCCCCCCc1c(C#N)c(N)[nH]c(=S)c1C#N,17.1
6,Cc1cc(NC(=O)CCC(=O)N(CC(=O)NC2CCCC2)c2ccc(Cl)c(Cl)c2)no1,-18.2
7,CC(=O)Nc1cccc(NC(=O)CS(=O)(=O)c2cn(CC(=O)N(C(C)C)C(C)C)c3ccccc23)c1,15.8
8,COc1cc(C2Sc3ccccc3NC3=C2C(=O)OC3)cc(OC)c1OC (stereo not shown),0.317
9,COc1ccc(CNC(=O)CSc2nnc(NC(=O)C3CC3)s2)cc1,0.952
10,CCCCCC(=O)N1CC2(CC(c3cccc(NC(=O)CC)c3)=NO2)C[C@H]1C(N)=O (stereo partly shown),-11.6
11,C/C(=C\C(=O)c1cccnc1)Nc1ccc(O)cc1,-6.35
12,O=Cc1cccc(OC(=O)/C=C/c2ccco2)c1,15.5
13,O=C(NC1CCCC1)c1ccc(CS(=O)Cc2ccccc2Cl)o1 (stereo not shown),-19.9
14,CCOc1ccccc1NC(=O)CN(c1ccc(OC)cc1)S(=O)(=O)c1c(C)noc1C,-17.9
15,CCCCCCCCCCCCCCCC[n+]1ccc(C(N)=O)cc1.[Br-],10
16,Cc1cc(NC(=O)CSc2nnc(C3COc4ccccc4O3)n2C)no1 (stereo not shown),-1.23
17,COc1ccc(C(=O)NC2CC(C)(C)Cc3occc32)cc1 (stereo not shown),-28.1
18,Cc1cc(C)c(NC(=O)COc2nncc3ccccc23)c(C)c1,3.48
19,COc1ccc(CN2CCSCC2)c(OC)c1C,13.5
20,S=c1[nH]cnc2scc(-c3ccc(Br)cc3)c12,0.154
21,O=C(NNC(=O)c1cccs1)c1ccc(Br)o1,15.8
22,COCCN(CCOC)Cc1cc(=O)oc2cc3c(cc12)CCC3,0.484

row,Structure (SMILES),"hERG current change (%, negative = inhibition) at 10uM [%]"
1,O=C(O)/C(=C\c1cccc(C(F)(F)F)c1)c1ccc(S(=O)(=O)N2CCCC2)s1,5.74
2,COc1cccc(CN2CCNC(=O)C2CC(=O)N(C)CCC2CCOCC2)c1 (stereo not shown),8.75
3,O=C(CSc1ccc2c(c1)OCCO2)NCC1CCCO1 (stereo not shown),3.76
4,Cc1ccc(N(C(=O)c2ccccn2)C2(C(=O)NC3CCCC3)CCCCC2)cc1,6.1
5,COc1ccc(CCNC(=O)Nc2ccccc2[N+](=O)[O-])cc1,-15.2
6,CCOC(=O)Cc1csc(NC(=O)Nc2cccc(OC)c2)n1,4.13
7,O=S(=O)(NC1CCN(S(=O)(=O)c2c(F)cccc2F)C1)c1ccc2c(c1)OCCO2 (stereo not shown),-5.32
8,S=C(NCc1ccco1)Nc1cccc(Cl)c1,-6.16
9,CCOc1cc(/C=N/N=C2/NC(=O)C(CC(=O)O)S2)ccc1OCc1ccc(Cl)cc1 (stereo not shown),12.3
10,COc1cc(/C=C/C(=O)N[C@@H](Cc2c[nH]c3ccccc23)C(=O)O)ccc1O,16.5
11,COc1ccc(C(C)NC(=S)NC2CCCC2)cc1OC (stereo not shown),17.8
12,CCc1cccc(NC(=O)CCCn2c(=O)[nH]c3ccsc3c2=O)c1,32.3
13,O=C(CSCc1cc(=O)[nH][nH]1)Nc1ccc(F)cc1,22.8
14,COC(=O)c1sc2cc(=O)n(-c3cccc(C(F)(F)F)c3)nc2c1O,5.09
15,CCN(CC)C(=O)c1sc(NC(=O)c2ccncc2)c(C(=O)OC)c1C,-11.7
16,O=C(CSc1nc2ccccc2c(=O)n1CC1CCCO1)Nc1ccc(F)cc1 (stereo not shown),-12.1
17,CN(C(=O)c1ccncc1)C1CCCCC1,18
18,COc1cccc(/C=C2/C(=O)NN(c3ccc(F)cc3)C2=O)c1,8.59
19,CNC(=O)c1c(NC(=O)CCS(=O)(=O)c2ccccc2)sc(C)c1C,0.0126
20,CNC(=O)NNC(=O)c1csc(Cc2c(Cl)sc3ccc(Cl)cc23)n1,-52.1
21,COC(=O)c1c(C)[nH]c(O)c1C=Nc1ccc(Oc2ccccc2)cc1,7.17
22,Cc1ccc(S(=O)(=O)NCc2ccc(C(=O)N3CCN(c4ccc([N+](=O)[O-])cc4)CC3)cc2)cc1,-70.7

row,Structure (SMILES),"hERG current change (%, negative = inhibition) at 10uM [%]"
1,CCCCN1C(=O)c2ccc(C(=O)Nc3ccc(C)c(S(=O)(=O)N(C)C)c3)cc2C1=O,-19.1
2,C/C(=N\NC(=O)c1nn(C)c(C)c1Br)c1ccc(NC(=O)c2ccccc2F)cc1,15.4
3,Fc1ccccc1C(c1nnnn1Cc1ccc2c(c1)OCO2)N1CCN(Cc2ccccc2)CC1 (stereo not shown),-55.3
4,Cc1ccc2c(c1)=C/C(=C\c1c(O)[nH]c(=S)[nH]c1=O)C(=O)N=2,5.06
5,CCc1noc(C)c1C(=O)NNC(=O)c1ccc(N(CC)CC)cc1,-3.19
6,O=C(N/N=C/c1ccccn1)c1cc([N+](=O)[O-])cc([N+](=O)[O-])c1,4.99
7,Cc1cccc(C(C)C)c1NC(=O)c1ccc(COc2ccc3c(C)cc(=O)oc3c2)cc1,12.3
8,CC(Sc1nnnn1C)C(=O)NC1CCCc2ccccc21 (stereo not shown),18.7
9,Cc1nonc1NC(=O)c1oc2ccccc2c1C,14.6
10,C=CCc1cc(Cl)ccc1OCCNCCOC.O=C(O)C(=O)O,-43.3
11,O=C1CC(N2CCN(c3ccc(C(=O)c4ccc(F)cc4)cc3)CC2)C(=O)N1 (stereo not shown),-33.4
12,O=C(Cc1ccc(F)cc1)N(c1ccccc1)C1C=CS(=O)(=O)C1 (stereo not shown),-20.6
13,CCCn1c(SCC(=O)NC2CCCC2)nnc1C(C)C,7.68
14,COCc1nc2ccccc2n1CCc1ccccc1,-33.6
15,Cc1ccc(-n2c(=O)cc(N3CCC(C)CC3)[nH]c2=O)cc1,2.19
16,CCc1ccc(C2CC(=O)N3CN(c4ccccc4)CSC3=C2C#N)cc1 (stereo not shown),17.4
17,Cc1cc(C)n(CC(=O)Nc2ccc(N3CCOCC3)c(Cl)c2)c(=O)c1C#N,2.33
18,N#C/C(=C\c1ccc(O)c(O)c1)C(=O)NCCCc1ccccc1,-1.59
19,CC(c1ccco1)N(C(=O)COc1ccccc1[N+](=O)[O-])c1ccccn1 (stereo not shown),-3.94
20,CCCOc1cccc(C2/C(=C(/O)c3ccc(F)cc3)C(=O)C(=O)N2CCN(C)C)c1 (stereo not shown),18.8
21,CCN(CC)CCN(C(=O)c1ccc2c(c1)OCCO2)c1nc2c(Cl)cccc2s1.Cl,-54.7
22,COc1cc(C)c(S(=O)(=O)NOCc2ccc([N+](=O)[O-])cc2)c(C)c1C,8.43

# Source: publication PMC4336329 (PLoS ONE, 2015)
